Reference: PubChem BioAssay AID504339 (National Center for Advancing Translational Sciences (NCATS), 2011)
Hit rate of the full screen: of about 390,000 compounds, about 17,000 (4.4%) were called active. Inconclusive means that the source gave no clear call. Such entries were picked first, then a sample of the others. Calls follow the shape of the dose curve; as a rule, active = well fitted inhibition curve with a large enough effect; inconclusive = small, poorly fitted or top-dose-only effect; inactive = no such curve, though single readings can be large or run the other way. Where the call is inconclusive, the potency comes from a doubtful curve fit.
% is scaled to controls: 0 for no effect and ±100 for the full control effect; potency is read from the fitted curve at half-maximal effect; tags tell the direction and shape of the fitted curve.
Also: nearly all actives have a fitted effect of over 50% in size.

Each compound was assayed against Lysine-specific demethylase 4A (Homo sapiens) (UniProt O75164) (assay: qHTS Assay for Inhibitors of JMJD2A-Tudor Domain). Conditions: AlphaScreen JMJD2A-Tudor / H3K4me3 peptide binding; activity change, negative = inhibition: at 114 µM (top of the series).
Chain of UniProt O75164 (O75164 whole entry, looked up, the tested form may be a part): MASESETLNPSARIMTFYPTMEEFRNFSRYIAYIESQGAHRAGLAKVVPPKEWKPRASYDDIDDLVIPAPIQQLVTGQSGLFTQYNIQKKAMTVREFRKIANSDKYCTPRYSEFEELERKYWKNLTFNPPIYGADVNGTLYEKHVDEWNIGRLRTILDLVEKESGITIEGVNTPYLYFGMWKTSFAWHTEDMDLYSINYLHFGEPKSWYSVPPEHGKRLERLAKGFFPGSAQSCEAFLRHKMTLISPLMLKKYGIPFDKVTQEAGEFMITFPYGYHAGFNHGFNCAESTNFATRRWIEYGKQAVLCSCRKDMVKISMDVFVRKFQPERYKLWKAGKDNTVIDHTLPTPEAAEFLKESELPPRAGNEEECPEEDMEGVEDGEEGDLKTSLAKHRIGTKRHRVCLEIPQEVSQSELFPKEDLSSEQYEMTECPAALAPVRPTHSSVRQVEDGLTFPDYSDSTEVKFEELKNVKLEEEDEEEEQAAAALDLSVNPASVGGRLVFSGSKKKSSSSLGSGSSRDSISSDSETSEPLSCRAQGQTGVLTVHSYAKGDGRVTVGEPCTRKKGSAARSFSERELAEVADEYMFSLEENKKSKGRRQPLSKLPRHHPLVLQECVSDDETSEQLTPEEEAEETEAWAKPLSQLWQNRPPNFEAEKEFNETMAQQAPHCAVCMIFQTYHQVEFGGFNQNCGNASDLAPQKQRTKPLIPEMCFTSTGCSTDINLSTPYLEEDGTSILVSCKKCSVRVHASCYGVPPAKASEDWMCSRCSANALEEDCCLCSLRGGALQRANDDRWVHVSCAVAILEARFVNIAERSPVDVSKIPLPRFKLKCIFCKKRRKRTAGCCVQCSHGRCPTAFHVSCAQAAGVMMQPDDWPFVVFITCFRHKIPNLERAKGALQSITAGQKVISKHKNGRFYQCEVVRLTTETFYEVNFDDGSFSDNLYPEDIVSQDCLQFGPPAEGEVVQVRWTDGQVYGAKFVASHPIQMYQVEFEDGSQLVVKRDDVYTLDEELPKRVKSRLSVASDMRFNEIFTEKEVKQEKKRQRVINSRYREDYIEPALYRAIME
Fc1ccccc1-n1cn[nH]c1=S was tested, and the Potency was active: 28.2 µM.
O=C1C(Cl)=C(N2CCN(c3ccccc3[N+](=O)[O-])CC2)C(=O)c2ccccc21 was tested, and the Potency was active: 5.01 µM.
In the case of CN1CCc2c(sc3c2C(=O)NC(c2ccc(-c4cccc(Cl)c4)o2)N3)C1 (stereo unspecified), the Potency is reported as active: 50.1 µM.
In the case of CC(C)c1ccc(S(=O)(=O)Nc2ccc(O)c(Sc3nc4ccccc4s3)c2)cc1, the Potency is reported as inconclusive: 25.1 µM [inhibitor, full curve].
For CNC(=S)Nc1ccc(N2CCCC2)c(S(=O)(=O)Nc2ccc(OC)cc2)c1, the Potency was inconclusive: 89.1 µM [inhibitor, partial curve, poor fit].
For CCN(CC)CCN(C(=O)c1ccc(C(=O)OC)cc1)c1nc2ccc(Cl)cc2s1, the Potency was inconclusive: 79.4 µM [inhibitor, partial curve].
For CC1CCCN(S(=O)(=O)c2ccc(NC(=O)CNC3CCCC3)cc2)C1 (stereo unspecified), the Potency was “inactive”.
COc1ccccc1C(=O)Nc1nc2ccccc2[nH]1 was tested, and the Potency was inconclusive: 28.2 µM [inhibitor, single point].
For Cn1c2c(c3cnc4cc(Cl)ccc4c31)CNCC2, the Potency was “inactive”.
In the case of COc1cc2c(=O)c(S(=O)(=O)c3ccc(C)cc3)cn(Cc3cccc(C)c3)c2cc1OC, the Potency is reported as inconclusive: 10 µM [inhibitor, full curve, poor fit].
In the case of Cc1ccc2[nH]c(C(=O)NCCN3CCCC3)cc2c1, the Potency is reported as “inactive”.
In the case of CN(Cc1ccccc1)C(=O)C1CCC(CNS(=O)(=O)c2cccc3cccnc23)CC1 (stereo unspecified), the Potency is reported as “inactive”.
COc1ccc(NC(=O)CN(c2cccc(C)c2C)S(=O)(=O)c2ccccc2)cc1OC was tested, and the Potency was inconclusive: 25.1 µM [inhibitor, full curve, poor fit].
CC(=O)c1cccc(NC(=S)NNC(=O)c2ccc(C)c([N+](=O)[O-])c2)c1 was tested, and the Potency was inconclusive: 50.1 µM [inhibitor, partial curve].
In the case of O=C(Nc1nnc(Cc2ccccc2)s1)C1CCN(C(=O)c2cccs2)CC1, the Potency is reported as “inactive”.
In the case of COC(=O)C1=C(C(=O)OC)[C@@H]2N(Cc3ccccc3)c3ccccc3[C@@]23C[C@@H](C(=O)OC)N=C3N1, the Potency is reported as inconclusive: 63.1 µM [inhibitor, partial curve, poor fit].
For CCOC(=O)c1nn(-c2ccc(C)c(C)c2)c(=O)c(C#N)c1C, the Potency was “inactive”.
For COC1(NS(=O)(=O)c2ccc(Br)cc2)C(C)=CC(=O)C=C1C, the Potency was “inactive”.
In the case of CCc1cc(=O)oc2cc(C)c(CN3CCCCC3)c(O)c12, the Potency is reported as active: 56.2 µM.
In the case of C[C@H](CO)N1C[C@H](C)[C@@H](CN(C)Cc2ccc(-c3ccccc3)cc2)Oc2c(NC(=O)Nc3ccc4c(c3)OCO4)cccc2C1=O, the Potency is reported as inconclusive: 56.2 µM [inhibitor, partial curve].
COc1ccc(N2CCN(C(=O)c3cccc(S(=O)(=O)N4CCCc5ccccc54)c3)CC2)cc1 was tested, and the Potency was inconclusive: 35.5 µM [inhibitor, full curve].
O=[N+]([O-])c1nn(-c2ccc3c(c2)OCCO3)n(O)c1=NCc1ccc(F)cc1 was tested, and the Potency was active: 35.5 µM.
For COc1ccc(NC2CCCN(C(=O)CCOc3ccccc3)C2)cc1 (stereo unspecified), the Potency was inconclusive: 56.2 µM [inhibitor, partial curve].
Cc1sc2nc(CN3CCCC3)nc(N3CCN(C(=O)c4ccco4)CC3)c2c1C was tested, and the Potency was inconclusive: 89.1 µM [inhibitor, partial curve, poor fit].
In the case of COc1ccc(C2c3c(ncn(Cc4ccccc4)c3=N)Oc3ccc4ccccc4c32)cc1OC (stereo unspecified), the Potency is reported as inconclusive: 56.2 µM [inhibitor, partial curve].
COc1cccc(N2CCN(C(=O)CN3C(=O)NC(C)(c4ccc5ccccc5c4)C3=O)CC2)c1 (stereo unspecified) was tested, and the Potency was inconclusive: 12.6 µM [inhibitor, full curve].
With COc1ccc(-c2cc(CCC(=O)N3CCN(c4cc(C)ccc4C)CC3)[nH]n2)cc1 the Potency was inconclusive: 56.2 µM [inhibitor, partial curve, poor fit].
In the case of CCN(CC)C(=O)Cn1cc(C(=O)C(=O)NCCc2c[nH]c3ccccc23)c2ccccc21, the Potency is reported as inconclusive: 50.1 µM [inhibitor, partial curve, poor fit].
For COc1ccc(OCc2cc(C(=O)N3CCCC3)no2)c2ccccc12, the Potency was inconclusive: 50.1 µM [inhibitor, partial curve, poor fit].
For CCN1C(=NCCc2ccc(Br)cc2)N[C@@H](c2ccccc2)[C@H](C(=O)OC)[C@H]1C, the Potency was inconclusive: 31.6 µM [inhibitor, single point].
For CCc1ccc(CNCCSc2nnnn2C)cc1, the Potency was “inactive”.
For COc1cc(OC)cc(-c2sc3ccc(OC)cc3c2C#CCO)c1, the Potency was inconclusive: 63.1 µM [inhibitor, partial curve, poor fit].
In the case of CC(C)(C)OC(=O)N1CCC(c2c(C(=O)Nc3ccc4c(c3)OCO4)cnn2-c2ccc(F)cc2F)CC1, the Potency is reported as inconclusive: 44.7 µM [inhibitor, partial curve].
In the case of COc1ccccc1OC(C)C(=O)O (stereo unspecified), the Potency is reported as inconclusive: 100 µM [inhibitor, single point].
For CCCCN(Cc1nc2ccccc2c(=O)[nH]1)C(=O)COc1ccc(F)cc1Cl, the Potency was “inactive”.
O=C(Nc1ccc(NC(=O)C2CC2)nc1)c1ccco1 was tested, and the Potency was inconclusive: 79.4 µM [inhibitor, single point].
With Cc1ccc(Cn2c(SCc3ccc(C(=O)NCCc4ccccc4)cc3)nc3ccncc32)cc1 the Potency was “inactive”.
In the case of COc1c([N+](=O)[O-])c(=O)n(-c2ccccc2)c2ccccc12, the Potency is reported as “inactive”.
With O=[N+]([O-])c1ccc(Cn2cc(-c3cccc(C(F)(F)F)c3)nn2)cc1 the Potency was inconclusive: 70.8 µM [inhibitor, single point].
With O=C(CCS(=O)(=O)c1ccccc1)Nc1ccc(N2CCN(Cc3ccccc3)CC2)cc1 the Potency was inconclusive: 79.4 µM [inhibitor, partial curve].
With CCn1nnnc1SCC(=O)c1cccc(OC)c1 the Potency was “inactive”.
With Cc1cc(C)nc(SCC(=O)Nc2ccc(S(=O)(=O)Nc3onc(C)c3C)cc2)n1 the Potency was “inactive”.
With CN1CCc2c(sc3c2C(=O)NC(c2cccs2)N3)C1 (stereo unspecified) the Potency was inconclusive: 56.2 µM [inhibitor, partial curve].
With Cc1ccc(/C=C2/C(=O)N(c3ccccc3)C(=S)N2C)o1 the Potency was inconclusive: 25.1 µM [inhibitor, single point].
For COc1cc(C(=O)NC2CC(C)(C)Cc3c2cnn3-c2ccccc2)cc(OC)c1OC (stereo unspecified), the Potency was inconclusive: 20 µM [inhibitor, full curve, poor fit].
With Cc1ccc(CS(=O)Cc2ccc(C(=O)NCc3ccc(OC(C)C)cc3)o2)cc1 (stereo unspecified) the Potency was “inactive”.
In the case of Cc1ccc(N2C(SCC(=O)O)=NC(=Nc3cccc(C)c3)C23CCCC3)cc1, the Potency is reported as active: 10 µM.
With O=C(Nc1sc2c(c1C(=O)O)CCC2)c1ccccc1 the Potency was inconclusive: 44.7 µM [inhibitor, partial curve].
c1ccc(Cc2ccc(OCCn3ccnc3)cc2)cc1 was tested, and the Potency was inconclusive: 44.7 µM [inhibitor, partial curve].
COc1cccc(N(CC(=O)NCCSCc2ccco2)S(=O)(=O)c2ccccc2)c1 was tested, and the Potency was “inactive”.
For O=C(c1ccco1)N(CCC(c1ccccc1)c1ccco1)Cc1ccco1 (stereo unspecified), the Potency was active: 22.4 µM.
With Cc1ccc(C)c(OCCC(=O)OCC(=O)Nc2ccc(Cl)cn2)c1 the Potency was “inactive”.
With COc1cccc(C(=O)N2CCN(Cc3cn[nH]c3-c3ccc(F)cc3F)CC2)c1 the Potency was inconclusive: 35.5 µM [inhibitor, partial curve].
O=S(=O)(c1cccc(C(F)(F)F)c1)N1CCN(CC(O)COCc2ccccc2)CC1 (stereo unspecified) was tested, and the Potency was active: 12.6 µM.
In the case of COc1cc2c3c(c1)/C(=C1/SC(NC(C)=O)=NC1=O)C(=O)N3C(C)(C)C=C2C, the Potency is reported as inconclusive: 63.1 µM [inhibitor, partial curve, poor fit].
For COc1ccc(NC(=S)NCc2ccccc2)c(OC)c1, the Potency was “inactive”.
For Cc1csc(=Nc2ccccc2)n1Cc1ccco1, the Potency was active: 44.7 µM.
In the case of O=[N+]([O-])c1ccccc1N/N=C1\CCc2ccccc21, the activity change, negative = inhibition is reported as inconclusive: -50% [inhibitor].
In the case of Cc1c(N=C2SCC(=O)N2/N=C/c2ccccc2Cl)c(=O)n(-c2ccccc2)n1C, the Potency is reported as “inactive”.
For CCN(CC(=O)Nc1ccc(NC(C)=O)cc1)C(=O)COc1ccccc1-c1ccccc1, the Potency was “inactive”.
COc1ccccc1C(=O)NC(=S)N1CCc2ccccc21 was tested, and the Potency was inconclusive: 89.1 µM [inhibitor, single point].
With O=C1NC2CCCCC2C(=O)N1OS(=O)(=O)c1ccccc1 (stereo unspecified) the Potency was inconclusive: 25.1 µM [inhibitor, full curve].
In the case of O=c1c2cc3c(cc2n(Cc2cccc(F)c2)c(=O)n1Cc1nc(-c2ccccc2)no1)OCO3, the Potency is reported as “inactive”.
COc1cc(/C=C2/C(=O)NN(c3ccc(C)c(Cl)c3)C2=O)cc([N+](=O)[O-])c1O was tested, and the Potency was inconclusive: 39.8 µM [inhibitor, partial curve].
In the case of Cc1cccc(NC(=O)C2CC(=O)OC23CCCC3)c1 (stereo unspecified), the Potency is reported as inconclusive: 44.7 µM [inhibitor, partial curve].
CCc1ccccc1NC(=O)CC(C)n1nc(C)cc1C (stereo unspecified) was tested, and the Potency was “inactive”.
In the case of COc1cccc(C(=O)Nc2ccccc2-c2nc(-c3ccc(C)cc3)no2)c1, the Potency is reported as “inactive”.
With O=C(CSC1=Nc2ccccc2C2=NC(CC(=O)N3CCN(c4ccccc4)CC3)C(=O)N12)NCC1CCCO1 (stereo unspecified) the Potency was “inactive”.
In the case of O=C(Nc1ccnn1C1CCN(C(=O)c2cccc(Cl)c2)CC1)C1CC1, the Potency is reported as “inactive”.
Cc1cc(C)cc(N2C(=O)CC(Sc3nnnn3-c3ccccc3)C2=O)c1 (stereo unspecified) was tested, and the Potency was “inactive”.
In the case of CCn1c(C)[n+](CC)c2ccc(S(=O)(=O)NC)cc21, the Potency is reported as “inactive”.
